# Assay results from the supplement of paper PMC10338343.
# ± gives the standard deviation. In all, about 6,600 sequences were measured (“pre-steady-state target cleavage rate”: median about 0.07, highest 2% from about 0.72 on). Only a part is listed here, and it is no random draw.
# Test system: MIWI (PIWIL1) piRISC loaded with Kctd7 piRNA (30 nt)
# Assay: pre-steady-state target cleavage rate (min^-1); MIWI and MILI are mouse PIWI proteins and EfPiwi is from a freshwater sponge; tags in brackets are library labels; higher = faster piRNA-guided slicing of the target
# Conditions: guide: Kctd7 piRNA 5'p-UGUUAAUCUCUCAGAGAAGGUGACAGUGAU; auxiliary factor: 500 nM mouse GTSF1
# How it was run: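 A transcribed, DNA-blocked target RNA library […] was incubated at 33 °C for 0–8 or 0–960 min with 1 nM active affinity-purified piRISC carrying one synthetic guide, in HEPES–potassium acetate buffer with or without 500 nM GTSF1 partner protein. Uncleaved targets were then sequenced and normalised to depth and to weakly complementary targets. Data from three trials were pooled, with k3 capped at 0.0001 min^-1, and a burst-and-steady-state fit yielded the pre-steady-state cleavage rate.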
# 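Also: 1 nM active piRISC with 0.1 nM target library at 33 °C single turnover.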
row,Sequence,pre-steady-state target cleavage rate
1,UACACUGUCACCAAGUCUGAGAGAUUUUGA,0.017 ± 0.0098
2,UAGUGACAGUGGAAGUCUGAGUCUAAUUGA [g10:g15:cont:t1A],0.0281 ± 0.023
3,UAGUGACAGUCCUUCUCUGAGAGAUUAACCA,0.0521 ± 0.0071
4,UUCACACUCACCUUCUCUGAGAGAUUAACA,0.635 ± 0.045
5,UAGUGACAGUGGAAGAGUGAGAGUAUUAACA,< 0.0001
6,UACACUGUCAGCUUCUCUGAGAGAUUAUGA,0.0289 ± 0.009
7,UAGUCUGACACCUUCUCAGAGAGAUUAACA,0.176 ± 0.016
8,UAGUGACACACCUACUCUGAGAGUUUAACA,0.049 ± 0.0098
9,UAGUGACUCACCUUCUCUGAGAGAUUUUCA,0.104 ± 0.016
10,AUGACUGUCACCUUCUGUGAGAGAUUAACA,0.565 ± 0.024
11,UAGUGAGUCACCAUCUCUGAGAGUUUAACA,0.152 ± 0.027
12,UAGUCAGUGACCUUCUCUGAGAGAUUAACA,0.616 ± 0.033
13,UAGUGACAGUCCUACUCUGAGAGAAUAACA,< 0.0001
14,UUCACUCUCACCUUCUCUGAGAGAUUAUGA,0.0483 ± 0.011
15,UAGUGAGUCACCUUCUCUGGAGAUUAACA,0.196 ± 0.018
16,UAGUGACACACCAUCUCUGAGAGAAUAACA,0.0218 ± 0.0057
17,AUCACUCUCAGCUUCUCUGAGAGAUUAACA,0.142 ± 0.016
18,UAGUGUGUCAGCUUCUCUGAGAGAUUUACA,0.211 ± 0.026
19,UAGUGUGUCACGUUCUGUGAGAGAUUAACA,0.478 ± 0.033
20,UAGACUGUCACCUUCUCUGAGAGGUUAACA,0.439 ± 0.039
21,UAGACUGUCACCUUCUCUCAGAGAUUAACA,0.154 ± 0.016
22,AUCACUGUCACCUUCUCUGAGAGUAAUUGA,0.143 ± 0.042
23,UAGUGACUCUCCUUCUCUGAGAGAUAAACA,0.0234 ± 0.0037

row,Sequence,pre-steady-state target cleavage rate
1,UAGUGACUCACCUUCUCUGAUAGAUUAACA,0.778 ± 0.035
2,AUCACUGUCACCUUCUCUGAGACGAUUAACA,0.0442 ± 0.009
3,UACACUGUCACCUUUUCUGAGAGAUUAACA,0.681 ± 0.049
4,UAGUGACAGUCCUUCUCUGGGAGAUUAACA,0.0168 ± 0.0033
5,UAGUGACAGACCUUCACUGAGAGAUUAUCA,0.0258 ± 0.0082
6,UAGUGACACACCAUCUGUGAGAGAUUAACA,0.0561 ± 0.0097
7,UAGUGAGUCACCUUCUGUGUGAGAUUAACA,0.0768 ± 0.0083
8,UAGUCAGUCACCUUCUCUGACAGAUUAACA,0.104 ± 0.014
9,UAGUGACUCAGCUUCUCUGAGAGAUUAUGA,0.00346 ± 0.0026
10,UAGUGAGUCACCUUCUCUGACACAUUAACA,0.0575 ± 0.0091
11,UAGUGUGUCACCUUCUCUGAGAGAUUAACCA,0.535 ± 0.041
12,UAGUGACACACCUUCUCUGAUAGAUUAACA,0.714 ± 0.054
13,AUCACUGUCACCUUCUGUGACAGAUUAACA,0.0389 ± 0.0096
14,UAGUCUGUCACCUUCUCUGACAGAUUAACA,0.0465 ± 0.0095
15,UAGUGACAGUCCUUCUGUGAGAGUUUAACA,0.00973 ± 0.0024
16,UUCACUGUCACCUUCUCUCAGAGAUAUUGA,0.00752 ± 0.0041
17,UACACUGACACCUUCUCUCAGAGAUUAACA,0.0777 ± 0.01
18,AUCACUGUCACCUUCUCUGACAGAUUAACA,0.364 ± 0.035
19,UAGUCUGAGACCUUCUCUGAGAGAUAUUGA,0.00315 ± 0.0026
20,UAGUCUGUCACCUACUCUGAGAGAAUAACA,0.326 ± 0.051
21,UAGACUGUCACCUUCUCUGAGAGAGUAACA,0.331 ± 0.032
22,UUAACUGUCACCUUCUCUGAGAGAUUAACA,0.581 ± 0.022
23,AUCACUCUCACCUUCUCUGAGAGAUUAAGA,0.0592 ± 0.016

row,Sequence,pre-steady-state target cleavage rate
1,UAGUGAGACACCUUCUCUGAGAGAUUAUCA,0.24 ± 0.044
2,UUCACUGUCACGUUCUCUGUGAGAUUAACA,0.175 ± 0.011
3,UAGUCUGUCACCUAUCUCUGAGAGAUUAACA,0.469 ± 0.031
4,UAGUGAGUCACCUUCUCAGAGAGUUUAACA,0.266 ± 0.047
5,UUCACUGUCACCAUCUCUGAGACAUUAACA,0.0714 ± 0.0062
6,UACACUGUCACCUUGUCUGUGAGAUUAACA,0.113 ± 0.011
7,AUCACUGUCACCUUCUCUGAGAGCAUUAACA,0.478 ± 0.037
8,UACACUGUCACCUUCUCUGAGACUAUAACA,0.0087 ± 0.0038
9,AUCACUGUACCUUCUCUGAGAGAUUAACA,0.769 ± 0.051
10,UUCACUGUCACCAUCUGUGAGAGAUUAACA,0.321 ± 0.021
11,UAGUGACUCAGCUUCUCUGAGAGAUAAACA,0.04 ± 0.0045
12,UAGUGACUGACCUACUCUGAGAGAUUAACA,0.0643 ± 0.0073
13,UAGUGACACACGUUCUCUGAGAGAUUAUGA,0.00533 ± 0.002
14,UAGUGAGUCAGCUUCUGUGAGAGAUUAACA,0.406 ± 0.027
15,UACAGUGUCACCUUCUCUGAGAGAUAUUGA,0.0949 ± 0.027
16,UAGUGACACACCUUCUCUGAGAGCAUUAACA,0.296 ± 0.042
17,AUCACUGUCACCUUCUCUGAGAGAUAACA,0.232 ± 0.037
18,UAGUGUGUCUCCUUCACUGAGAGAUUAACA,0.119 ± 0.011
19,UAGACUGUCACCUUCUCUAGAGAUUAACA,0.136 ± 0.0091
20,UAGUGACUCACCUUCUCUGAGAGUAAAUGA,0.00493 ± 0.0032
21,AUCACAGUCUCCUUCUCUGAGAGAUUAACA,0.511 ± 0.032
22,UAGUGACUCUCCUUCUCUGAGACAUUAACA,0.0463 ± 0.0073
23,AUGACAGUCACCUUCUCUGAGAGAUUAACA,0.657 ± 0.024

row,Sequence,pre-steady-state target cleavage rate
1,UAGUGACAGUCCUUUUCUGAGAGAUUAACA,0.0193 ± 0.0042
2,UAGACUGUGACCUUCUCUGAGACAUUAACA,0.075 ± 0.0091
3,UAGUGAGUCACCUUCUCUGACGAGAUUAACA,0.0116 ± 0.0049
4,UAGUGACUCACCUUCUCUGGAGAUUAACA,0.0282 ± 0.0065
5,UAGUGUGAGUCCUUCUCUGAGAGAUUAACA,0.101 ± 0.011
6,UAGUCUGUCACCUUCAGAGAGAGAUUUUGA,0.00669 ± 0.0048
7,UACACUGUCACCUUCUCUGAGAGAAUAAGA,0.0626 ± 0.023
8,AUCACUGUCACCUUCUCUGAGAGAUUAAAA,0.169 ± 0.023
9,CUCACUGUCACCUUCUCUGAGAGAUUAACA,0.714 ± 0.031
10,UUCACUGUCACCUUCUCUGAGAGAUAAUGA,0.101 ± 0.029
11,AUCACUGAGUCCUUCUCUGAGAGAUUAUGA,0.0896 ± 0.022
12,UACACUGUCUCCUUCUCAGAGAGAUUAACA,0.319 ± 0.022
13,UAGUGACACACCUUCUCUGUGAGAUUUACA,0.077 ± 0.009
14,UAGACUGACACCUUCUCUGAGAGAUUAUGA,0.0717 ± 0.013
15,AUCACUGUCACCUUCUCUGAGAGACUUAACA,0.272 ± 0.027
16,UACACUGUCACGUUCUCUGACAGAUUAACA,0.0799 ± 0.012
17,UAGUGACUGACCUUCUCUGAGAGAUAAACA,0.102 ± 0.0097
18,UUCACUGUCACCUUCUCUGAGAGAUUAAGA,0.238 ± 0.037
19,UAGUGACAGACCUUCUCUGACAGAUAAACA,0.00666 ± 0.0029
20,AUCACUGUCACCUUCUCACAGAGAUUAAGA,0.00695 ± 0.0036
21,UACUCUGUCACCUUCUCUGAGAGAUUAUCA,0.207 ± 0.026
22,UUGACUGUCACCUUCUCUGAGAGUUUAACA,0.253 ± 0.035
23,UAGUGAGUCACCAUCUCUGAGAGAUAUUGA,0.00592 ± 0.0043
